Values joined by “and” are separate entries in the source; they are usually repeats but may differ in a detail not shown here. Identical values can stand only once. In all, about 420,000 compounds went through this assay and about 50,000 (12%) were called active. Inconclusive results, whose numbers are uncertain, are shown with a selection of clear calls. The call rests on the fitted dose curve; in most records, active means well fitted inhibition curve with a large enough effect; inconclusive means small, poorly fitted or top-dose-only effect; inactive means flat fitted curve, though single readings scatter. A potency beside an inconclusive call is a rough fit, not a confirmed value.
Assay: qHTS for Inhibitors of human tyrosyl-DNA phosphodiesterase 1 (TDP1): qHTS in cells in presence of CPT; further: nearly all actives have a fitted effect of over 55% in size
Settings: chicken DT40 Tdp1-/-;hTDP1 cells + 20 nM CPT, ATP luminescence, 48 h; activity change, negative = growth inhibition: at 46.2 µM (top of the series) unless noted
Method in brief: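 Chicken DT40 Tdp1-/- cells stably complemented with human TDP1 were seeded at 400 cells/well in medium containing 20 nM camptothecin, exposed to pin-transferred compounds, and grown at 37 °C for at least 48 hr. Viability was read as ATP luminescence.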
For `O=C(/C=C/c1ccc(O)cc1)c1ccccc1O`, the Potency was active: 25.9 µM.
In the case of `Cc1noc(C)c1CSc1nc2ccccc2c(=O)n1-c1ccc(Cl)cc1`, the Potency is reported as active: 18.4 µM.
For `O=C(Nc1ccc(S(=O)(=O)N2CCN(c3ccccc3)CC2)cc1)c1cccs1`, the “activity change, negative = growth inhibition” value was inactive: 1.21%.
In the case of `C=CCn1c(SCC(=O)N2CC(=O)Nc3ccccc32)nc2scc(-c3cccs3)c2c1=O`, the Potency is reported as inconclusive: 18.4 µM [inhibitor, single point].
For `Cc1cccc(N(CC(=O)NCCSCc2ccco2)S(=O)(=O)c2ccccc2)c1`, the activity change, negative = growth inhibition was inconclusive: -30.5% [inhibitor].
In the case of `O=C(NCc1ccco1)c1ccccc1NS(=O)(=O)c1ccc(Br)s1`, the Potency is reported as inconclusive: 29.1 µM [inhibitor, single point].
In the case of `Cc1cc(Cl)c(C)c(S(=O)(=O)N2CCN(C(=O)C3CCCO3)CC2)c1Cl` (stereo unspecified), the Potency is reported as inconclusive: 16.4 µM [inhibitor, partial curve].
For `N#CCOC(=O)C1c2ccccc2Oc2ccccc21`, the Potency was inconclusive: 16.4 µM [inhibitor, single point].
In the case of `Cc1cccc(C(=O)NN/C=C/C(=O)c2ccccc2)c1`, the Potency is reported as inconclusive: 29.1 µM [inhibitor, single point].
For `CCc1cc(-c2nnn(CCC3COCCO3)c2CC)ccc1-c1cn(Cc2ccc3ccccc3c2)nn1` (stereo unspecified), the Potency was active: 5.8 µM.
With `CCN(CC)CC(=O)Nc1c(C)cc(C(C)(C)C)cc1C` the Potency was inconclusive: 29.1 µM [inhibitor, single point].
In the case of `CCOC(=O)c1ccc(NC(=O)CCNS(=O)(=O)c2ccc3c(c2)oc(=O)n3C)cc1`, the “activity change, negative = growth inhibition” value is reported as inactive: -13.5%.
For `C=CCn1c(SCc2ccc3c(c2)OCO3)nc2scc(-c3ccco3)c2c1=O`, the “activity change, negative = growth inhibition” value was inactive: -11.5%.
With `Cc1ccc(NC(=S)N(CCN2CCCCC2)Cc2ccco2)cc1Cl` the Potency was inconclusive: 29.1 µM [inhibitor, single point].
In the case of `CCOC(=O)c1ccc(N2C(=O)c3n[nH]c(C)c3C2c2ccc(OC)cc2OC)cc1` (stereo unspecified), the Potency is reported as inconclusive: 16.4 µM [inhibitor, partial curve].
For `CCOc1ccccc1NC(=O)CCNS(=O)(=O)c1ccc2c(c1)CCN2C(=O)C1CC1`, the activity change, negative = growth inhibition was inconclusive: -34.9% [inhibitor].
In the case of `Cc1cccc(N/N=C(\C(N)=O)C2=NC(C)(C)Cc3ccccc32)c1`, the Potency is reported as inconclusive: 20.6 µM [inhibitor, single point].
With `CCN(C[C@H]1N[C@@](CC)(C(=O)OC)[C@H]2C(=O)N(Cc3ccccc3)C(=O)[C@@H]12)C(=O)Nc1ccc(C)cc1` the Potency was inconclusive: 29.1 µM [inhibitor, single point].
In the case of `Cc1nnc(N2CCCC(C(=O)NCc3ccc(OC(C)C)cc3)C2)c2nn(-c3ccccc3)c(C)c12` (stereo unspecified), the Potency is reported as inconclusive: 29.1 µM [inhibitor, single point].
For `CCOC(=O)c1c(C)sc(Sc2ccc(Cl)cc2[N+](=O)[O-])c1OC`, the Potency was inconclusive: 18.4 µM [inhibitor, single point].
For `CCCCOc1ccc(/C=C/C(=O)NC2=Nc3ccccc3NC(C)=C2C(=O)OCC)cc1OC`, the Potency was inconclusive: 29.1 µM [inhibitor, single point].
In the case of `CCOCCCNC(=O)c1c[nH]c2ccc(OCC)cc2c1=O`, the Potency is reported as inconclusive: 29.1 µM [inhibitor, single point].
In the case of `COc1ccc(NC(=O)Nc2cccs2)cn1`, the Potency is reported as active: 13 µM.
For `O=C1CC(N2CCN(Cc3ccc4c(c3)OCO4)CC2)C(=O)N1CCc1ccccc1` (stereo unspecified), the Potency was active: 12.6 µM.
In the case of `NC(=O)c1nsc(C(=O)N(c2ccc3c(c2)OCCO3)C(C(=O)NCC2CCCO2)c2ccc(F)cc2)c1N` (stereo unspecified), the Potency is reported as active: 14.6 µM.
With `O=c1oc2ccccc2c(O)c1Sc1ccc(Cl)cc1` the “activity change, negative = growth inhibition” value was inactive: -21.6%.
With `CCOC(=O)C1CCCN(CCSc2ccc(C)cc2)C1` (stereo unspecified) the Potency was inconclusive: 23.1 µM [inhibitor, single point].
With `C[C@H](NC(=O)CC[C@H]1O[C@@H](n2ccc(=O)[nH]c2=O)[C@H](O)[C@@H]1O)c1cccc2ccccc12` the “activity change, negative = growth inhibition” value was inactive: 1.92%.
In the case of `Cc1cc(NC(=O)C2CCN(S(=O)(=O)c3cnc[nH]3)CC2)ccc1Br`, the “activity change, negative = growth inhibition” value is reported as inactive: -12.6%.
In the case of `CCCCS(=O)CC(O)CSc1nc(-c2ccc(OC)cc2)cc(-c2ccccc2)c1C#N` (stereo unspecified), the Potency is reported as inconclusive: 29.1 µM [inhibitor, single point].
For `CC(=O)c1cccc(NC(=O)c2ccc(NS(C)(=O)=O)cc2)c1`, the “activity change, negative = growth inhibition” value was inactive: 3.59%.
For `Cc1ccc(NC(=O)C(NC2CCCc3ccccc32)c2ccccc2)c([N+](=O)[O-])c1` (stereo unspecified), the Potency was inconclusive: 23.1 µM [inhibitor, single point].
For `COc1ccc(-c2cn(Cc3ccc([N+](=O)[O-])cc3)nn2)cc1`, the Potency was inconclusive: 35.5 µM [inhibitor, single point] and inconclusive: 25.9 µM [inhibitor, single point].
For `Cc1ccccc1-c1cccc([C@@H]2C[C@H]3CN(Cc4cccnc4)C(=O)[C@]34CCCN24)c1`, the Potency was active: 23.1 µM.
With `OC[C@@H]1CN(Cc2ccc(F)cc2)C[C@H](n2cnc3c(NC4CCCC4)ncnc32)O1` the Potency was inconclusive: 29.1 µM [inhibitor, single point].
For `CC(=O)c1c(NCCc2ccccc2)cc(C)oc1=O`, the Potency was inconclusive: 8.91 µM [inhibitor, partial curve].
In the case of `COc1ccc(CNc2ncnc3ccc(-c4ccccc4OC)cc23)c(OC)c1`, the Potency is reported as inconclusive: 23.1 µM [inhibitor, single point].
With `O=C(NCCCCCCNC(=O)c1ccncc1)c1ccncc1` the “activity change, negative = growth inhibition” value was inactive: -18%.
In the case of `CC(C)CN(C(=O)COC(=O)C12CC3CC(CC(O)(C3)C1)C2)C1CCS(=O)(=O)C1` (stereo unspecified), the “activity change, negative = growth inhibition” value is reported as inactive: -22.1%.
In the case of `N#Cc1cccc(-c2nc(NCc3ccccc3)c3ccccc3n2)c1`, the Potency is reported as inconclusive: 13 µM [inhibitor, partial curve, poor fit].
With `COc1ccc(CCNC(=O)CSc2nn(-c3ccccc3)c(=S)s2)cc1OC` the Potency was inconclusive: 20.6 µM [inhibitor, single point].
In the case of `CCCCC(=O)Nc1cccc(-c2ccc3nncn3n2)c1`, the “activity change, negative = growth inhibition” value is reported as inactive: -1.48%.
In the case of `COc1cc(/C=N/N2CCN(Cc3ccc(C)cc3)CC2)cc(OC)c1O`, the Potency is reported as inconclusive: 32.6 µM [inhibitor, partial curve, poor fit].
With `CCCCN(C)C(=O)Cn1ncc2c([nH]c3ccc(C)cc32)c1=O` the Potency was inconclusive: 29.1 µM [inhibitor, single point].
With `COc1ccc(CNC(=O)Nc2ccc([N+](=O)[O-])cc2)cc1` the Potency was inconclusive: 29.1 µM [inhibitor, single point].
For `CN(CCO)C(=O)c1c(NC(=O)c2ccccc2)sc2c1CCCC2`, the “activity change, negative = growth inhibition” value was inactive: -5.72%.
For `CC1Cc2ccccc2N1C(=O)CSc1nnnn1-c1ccc2c(c1)OCCO2` (stereo unspecified), the Potency was inconclusive: 29.1 µM [inhibitor, single point].
With `Cn1ncc2c(N3CCN(c4ccccc4Cl)CC3)ncnc21` the Potency was inconclusive: 20.6 µM [inhibitor, single point].
With `Cc1ccc(OCCCC(=O)Nc2sc3c(c2C(N)=O)CCCC3)cc1` the activity change, negative = growth inhibition was inconclusive: -32.9% [inhibitor].
In the case of `O=C1[C@H]2[C@H](C=CC[C@H]2C(=O)N2CCN(c3ccccc3)CC2)CCN1Cc1ccccc1`, the Potency is reported as inconclusive: 28.2 µM [inhibitor, single point] and inconclusive: 18.4 µM [inhibitor, single point].
With `COc1ccc(-c2ccc3c(c2)O/C(=C\c2ccsc2)C3=O)cn1` the Potency was inconclusive: 29.1 µM [inhibitor, single point].
With `O=C1CSC(c2cn(-c3ccccc3)nc2-c2ccc3c(c2)OCCO3)N1CCN1CCOCC1` (stereo unspecified) the Potency was inconclusive: 14.6 µM [inhibitor, single point].
In the case of `Fc1ccccc1N1CCN(c2c3c(nc4nncn24)CCC3)CC1`, the Potency is reported as inconclusive: 29.1 µM [inhibitor, single point].
For `CCOc1cc(/C=N/NC(=O)Cn2nc([N+](=O)[O-])cc2C)cc(Br)c1OCc1ccccc1F`, the Potency was active: 20.6 µM.
With `O=C(CCN1CCN(c2ccccc2)CC1)N/N=C/c1ccc([N+](=O)[O-])o1` the Potency was active: 10.3 µM.
In the case of `Cc1ccc(S(=O)(=O)N(CC(=O)NCc2ccco2)c2ccccc2C)cc1`, the “activity change, negative = growth inhibition” value is reported as inactive: -7.69%.
In the case of `O=C(CSc1nnc(-c2ccccn2)n1Cc1ccco1)c1ccccc1`, the Potency is reported as inconclusive: 29.1 µM [inhibitor, single point].
In the case of `CC(=O)c1cccc(S(=O)(=O)NC2CCSc3ccccc32)c1` (stereo unspecified), the Potency is reported as inconclusive: 18.4 µM [inhibitor, single point].
In the case of `COc1cccc(-c2nc(CS(=O)(=O)CC(=O)NC3CCCC3)c(C)o2)c1`, the “activity change, negative = growth inhibition” value is reported as inactive: -0.996%.
For `Cc1ccccc1NS(=O)(=O)c1ccc(C(=O)N2CCCC(C(F)(F)F)C2)cc1` (stereo unspecified), the Potency was inconclusive: 20.6 µM [inhibitor, single point].
For `CCCCn1nc2cc(C(=O)NCC34CC5CC(CC(C5)C3)C4)ccc2c1OCC`, the Potency was inconclusive: 29.1 µM [inhibitor, single point].
For `CCCCCCCc1n[nH]c(=S)n1Cc1ccccc1`, the Potency was inconclusive: 29.1 µM [inhibitor, single point].
With `CCCn1c(CC)nc([N+](=O)[O-])c1Sc1ccc(F)cc1` the Potency was inconclusive: 25.9 µM [inhibitor, single point].
In the case of `O=C(/C=C/c1cccnc1)c1ccccc1O`, the Potency is reported as inconclusive: 20.6 µM [inhibitor, partial curve, poor fit].
For `COc1cccc(NS(=O)(=O)c2cc3c(cc2C)N(C)CCO3)c1`, the Potency was inconclusive: 18.4 µM [inhibitor, single point].
For `CCCCNC(=O)C1C(c2ccc(C(F)(F)F)cc2)=Nc2ccccc2N1C(=O)c1ccc2nc(C)[nH]c2c1` (stereo unspecified), the Potency was inconclusive: 18.4 µM [inhibitor, single point].
On the % scale 0 is the no-effect control and ±100 the full control effect; potency means the concentration at half of the fitted maximal effect; tags describe the fitted curve by direction and shape.
